Measured values as given in the supplement of paper PMC3334620.
In all, about 33,000 sequences were measured (“E-score (-0.5 to 0.5)”: median about -0.021, highest 2% from about 0.32 on). This is one part of the list.

Target: T1, Zap1 (UniProt P47043)
T1 sequence: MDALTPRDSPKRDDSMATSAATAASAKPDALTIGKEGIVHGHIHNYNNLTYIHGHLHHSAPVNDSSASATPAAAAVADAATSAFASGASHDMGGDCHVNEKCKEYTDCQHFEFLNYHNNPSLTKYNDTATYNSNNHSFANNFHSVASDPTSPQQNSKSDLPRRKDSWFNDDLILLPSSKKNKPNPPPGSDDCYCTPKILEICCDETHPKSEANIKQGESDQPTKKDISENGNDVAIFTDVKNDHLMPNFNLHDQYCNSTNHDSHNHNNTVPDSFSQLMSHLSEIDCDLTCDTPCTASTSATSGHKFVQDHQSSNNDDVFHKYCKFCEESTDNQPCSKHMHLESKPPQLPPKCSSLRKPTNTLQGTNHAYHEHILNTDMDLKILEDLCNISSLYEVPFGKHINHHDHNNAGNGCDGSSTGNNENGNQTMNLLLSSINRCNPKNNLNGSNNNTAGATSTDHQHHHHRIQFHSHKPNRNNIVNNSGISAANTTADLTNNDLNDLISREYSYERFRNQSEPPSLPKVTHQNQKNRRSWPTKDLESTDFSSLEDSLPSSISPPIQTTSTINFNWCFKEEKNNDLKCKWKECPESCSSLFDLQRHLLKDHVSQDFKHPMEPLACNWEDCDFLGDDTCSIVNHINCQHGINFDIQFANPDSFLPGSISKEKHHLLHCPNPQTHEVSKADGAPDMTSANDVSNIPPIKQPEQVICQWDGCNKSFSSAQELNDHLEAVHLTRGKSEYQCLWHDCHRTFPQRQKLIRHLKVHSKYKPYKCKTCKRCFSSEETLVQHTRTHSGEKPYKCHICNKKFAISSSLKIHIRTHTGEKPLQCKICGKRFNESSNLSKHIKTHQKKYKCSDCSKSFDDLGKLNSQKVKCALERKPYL
Experiment: PBM E-score (8-mer binding enrichment) (E-score (-0.5 to 0.5)); higher = stronger / more preferred TF binding; most listed sequences are background and not binding sites
Details: protein concentration: 200 nM; construct: GST-full length
Summary of the method: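 Bound GST-tagged yeast transcription factors, applied at about 100-200 nM to double-stranded universal all-10-mer Agilent arrays, were detected with fluorescent anti-GST. Scans were normalised with masliner. A modified Wilcoxon-Mann-Whitney statistic, the E-score, was assigned to each ungapped eight-base word pooled with its reverse complement by the Universal PBM Analysis Suite.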

Row | Sequence | PBM E-score
1 | CCTAAATC | 0.156
2 | CAGCATAA | -0.0697
3 | TAGCCACA | 0.001
4 | TCTTCCAA | -0.00655
5 | GACGAGGC | -0.22
6 | AACACCTT | 0.192
7 | AGTAGACT | -0.104
8 | ATAGGTTA | 0.46
9 | GAATACTA | 0.144
10 | GACGTTCC | -0.195
11 | CGTGCGGA | -0.251
12 | AATCCGTG | 0.0184
13 | CAGGAGAA | -0.00707
14 | CACAGATG | -0.212
15 | GGTACACA | 0.113
16 | CTAGGTTC | 0.0156
17 | CCTGTGAG | 0.133
18 | CCTTATCA | 0.114
19 | GAACCGGC | -0.145
20 | ACACCGCG | -0.175
21 | ACCCAGAC | 0.00258
22 | ACATTCTC | -0.0126
23 | GCCCATCC | -0.338
24 | AATCGGCT | 0.0585
25 | CAGGGCAG | -0.0677

Row | Sequence | PBM E-score
26 | AGTATTCG | -0.0303
27 | CTTATTAA | 0.0579
28 | CAAAGTTC | -0.141
29 | CGGCGGCC | -0.197
30 | TACTAACA | 0.235
31 | CATTGTGC | -0.0523
32 | CAGGTGCG | 0.0458
33 | AGGTCCCC | 0.203
34 | AGTCGTGC | -0.255
35 | AGTTGCAC | -0.037
36 | ATGTTAGC | -0.1
37 | ACTCAATC | 0.108
38 | TAGTTAGA | 0.058
39 | AGAACGGC | -0.132
40 | CCATGAAC | 0.14
41 | TATGGACA | 0.192
42 | ACGTTCGC | -0.191
43 | AATCAACG | 0.0163
44 | ACTGGCTC | -0.227
45 | GGTTGTAC | 0.336
46 | CAAAAATA | 0.198
47 | GTCGAAAC | -0.0759
48 | ATGAACGC | 0.131
49 | ATAGCGTC | -0.0103
50 | GCCACGCC | 0.00642

Row | Sequence | PBM E-score
51 | CACTTCGA | -0.0374
52 | CTACAGGC | -0.258
53 | GCGAGGGA | -0.154
54 | ACATTTCC | 0.0405
55 | CCAAATCC | -0.2
56 | ACATGTTG | 0.0732
57 | GATTCAGC | -0.225
58 | GCCTAGAA | 0.0412
59 | TCCTATAA | 0.0713
60 | GAAGACAA | -0.0349
61 | TGAAGAAA | 0.0892
62 | CAATAATG | -0.00451
63 | CCACATCC | -0.166
64 | CAGACTGG | -0.0742
65 | CTATCCGA | -0.124
66 | GGCACAAC | 0.0738
67 | TGTTCCAA | 0.105
68 | CAAAGGTA | 0.267
69 | ACTACTGC | -0.277
70 | CCTCACAC | -0.188
71 | CGAGCTCC | -0.12
72 | GCATGAGA | -0.0936
73 | CCAACTCA | -0.0111
74 | ACATTGAC | -0.0853
75 | GTTCCTAA | 0.0431

Row | Sequence | PBM E-score
76 | AGGGGTGA | 0.219
77 | CAAACGGG | 0.0184
78 | GCGTAAAC | 0.00957
79 | GAACCGTA | -0.165
80 | CCGCAGCG | -0.13
81 | CTCGCTGA | -0.0008
82 | ACTATCGA | -0.0815
83 | ACTTTGGC | -0.113
84 | ATAAAACG | -0.00923
85 | GCATTTCA | 0.0235
86 | AATCCGAA | -0.0876
87 | ATCCGTGG | -0.0543
88 | AGGTTCGG | -0.112
89 | GATATGGA | 0.0205
90 | ATACATTA | 0.133
91 | AGGCGACA | -0.329
92 | AAGCTGGC | -0.275
93 | CAGGGAAA | -0.158
94 | AATGTCCC | -0.066
95 | AGACCGGC | -0.262
96 | GTACCCAA | 0.234
97 | CACATCTA | -0.093
98 | AGTATACC | 0.16
99 | GACTAGTC | -0.225
100 | CTGCCCTC | -0.256

Row | Sequence | PBM E-score
101 | CAGAACCC | 0.317
102 | GCGACCAC | -0.0322
103 | AGAACCGA | 0.0215
104 | GATCGAAC | 0.0204
105 | GCGGTTAC | 0.452
106 | CAAGTTTA | 0.161
107 | CCCAGTGC | -0.044
108 | GAGCTTCA | -0.128
109 | AGTTTCTG | 0.0935
110 | GTTTTGCA | 0.057
111 | AGCTCTCA | -0.176
112 | CGAACGAA | -0.104
113 | AAGCTCTG | -0.208
114 | GTTTAGTA | 0.162
115 | CTAAGCAA | -0.23
116 | ACGAATTG | 0.0213
117 | GCTGAGGA | -0.155
118 | ACGGTTAG | 0.223
119 | TAACAGCA | 0.0563
120 | AACAGCAC | -0.043
121 | AATCCGAG | -0.115
122 | AGGAATGC | -0.217
123 | GGCCTTGA | 0.0312
124 | TCTTTCAA | -0.0173
125 | CTTTGACC | 0.217

Row | Sequence | PBM E-score
126 | AATCTCTC | -0.098
127 | ACGTACCA | -0.0952
128 | CGGATTCA | -0.214
129 | GCATCGGA | -0.108
130 | GTAGTGGA | 0.0595
131 | CCCTCCTC | -0.0866
132 | ACCACTCG | 0.197
133 | AGTCTTTG | -0.0475
134 | ATAGCAGC | -0.228
135 | AAATAAGT | 0.0355
136 | ATACATAC | -0.122
137 | ACCCTAGC | 0.247
138 | ATACCGAG | 0.0739
139 | CGTCATGA | 0.0742
140 | CTCATTTC | 0.0143
141 | ATATGTGC | -0.105
142 | CGTGAACA | 0.221
143 | AATTAGGC | -0.0246
144 | ATTTGCCC | -0.0591
145 | ACTGGTAC | 0.15
146 | ACGAGGTC | 0.27
147 | ACCCGAAA | 0.328
148 | GGGTATTA | 0.267
149 | CATAGAGG | 0.0738
150 | AGCATTAT | -0.1

Row | Sequence | PBM E-score
151 | GCGGGTAA | 0.106
152 | GGCCGTAC | 0.117
153 | CAGTCATC | -0.3
154 | CCACCTGC | -0.0244
155 | CCTTTCTC | -0.006
156 | CGTACCGA | -0.135
157 | ACAAACAA | 0.142
158 | CTGCATCC | -0.0895
159 | ATATATTC | -0.0796
160 | CCCCCATC | -0.0216
161 | CCTAATTA | 0.0706
162 | GTCCTTAA | 0.268
163 | AATCCGGC | -0.241
164 | CGTAATAG | -0.0281
165 | TAGGTCAA | 0.139
166 | TCCGTCCA | -0.0919
167 | ATAGTCTA | -0.111
168 | ACTACCTG | 0.118
169 | GAGTGGCA | -0.221
170 | AGTCTCAA | -0.0712
171 | GTACACAC | 0.0642
172 | CAGCCACG | -0.141
173 | ACAAGGCA | -0.181
174 | AGGATACA | -0.161
175 | GTGGCGGA | -0.117

Row | Sequence | PBM E-score
176 | CCTTGGAA | 0.102
177 | GACAAGGA | -0.0301
178 | CTAGTGCC | -0.168
179 | AAACTCTT | -0.194
180 | AGGGATTA | 0.122
181 | AGAAATCC | -0.104
182 | CGAAGAAG | -0.0716
183 | ACCCAAGC | -0.0155
184 | GAACGGGA | -0.128
185 | AATCCGTC | -0.0793
186 | ACTACCAC | 0.119
187 | CCTGAGCA | 0.0632
188 | ATTGAGAA | 0.128
189 | ACCGTCGA | 0.0603
190 | GGCGTAAA | -0.0676
191 | ACCTGTCG | 0.0224
192 | CGTCGAAG | -0.182
193 | CGAAGATC | -0.146
194 | CGTCCATC | -0.194
195 | AGTGGTAA | 0.241
196 | TGACTAAA | -0.0176
197 | CTAAATAC | 0.0338
198 | CTTGATGA | 0.189
199 | TAACCAAA | 0.386
200 | TGGGCCCA | 0.0602

Row | Sequence | PBM E-score
201 | ACTAGGTA | -0.0051
202 | CCGACATA | 0.0519
203 | AAAAGGCT | 0.0247
204 | ACTTCTAT | -0.0897
205 | CCTCCAGG | 0.0633
206 | AACTACAT | 0.0935
207 | ATGCACGA | -0.0638
208 | CACAAACC | 0.00637
209 | CTCAGGAC | 0.0351
210 | ACATTCCT | -0.107
211 | CATCTCTA | -0.0862
212 | AAGAACCG | 0.16
213 | GACCGCAA | 0.226
214 | GCAACCTA | 0.106
215 | GCGGTTCA | -0.00935
216 | CCAGCACG | -0.131
217 | CCCCCAAG | -0.0304
218 | AGCCGAAC | -0.144
219 | ATAAACAC | 0.156
